# Values joined by “and” are separate entries in the source; they are usually repeats but may differ in a detail not shown here. Equal entries are not always repeated. Out of some 150,000 compounds screened, about 540 (0.36%) showed an effect of 50% or more. The list shows a part of the results.
# Test system: Plasmodium falciparum
# Assay: Primary screen in NF54 nanoGlo assay, in single point, at 2uM, 72h; a lower Z score goes with more inhibition
# Assay type: functional, Erythrocyte
# Details: timepoint 72 hour
SMILES,% Inhibition,Z score,% Inhibition (2 µM),Z score (2 µM)
C=C(C)C1OCCC1CNC(=O)N(C)Cc1ccoc1C (centres undefined),-4%,0.48,,
CCN1CC(=O)N[C@H]2CN(C(=O)c3cncc(O)n3)CC[C@@H]2OCc2cccc(c2)Oc2cc(OC(C)C)cc(c2)C1=O,1%,-0.26,,
Cc1cc(C(=O)N2CCN(Cc3cccnc3)[C@@H]3CS(=O)(=O)C[C@@H]32)[nH]n1,-12%,1.49,,
CO[C@@]12CC[C@@H](O)C[C@@H]1N(C(=O)c1cc(=O)n(-c3ccccc3)[nH]1)CC2,-14%,1.27,,
O=C(NC1CCCC1)C1CCN(c2ccc(-c3ccco3)nn2)CC1,0%,0.02,,
Cc1cnc(C2CC2)n1CCNC(=O)Cc1ccccc1,-14%,1.75,,
CCc1ccc(-c2cc(C)no2)cc1S(=O)(=O)N(Cc1ccco1)[C@@H](C)c1ccccc1,-5%,0.63,,
c1ccc(Cc2noc(CN3CCn4ccnc4C3)n2)cc1,-9%,1.96,,
C=CCn1ncc(CN(C2CCCC2)[C@@H](C)CC)c1C,-8%,1.2,,
CCOC[C@@]12CCN(C(C)=O)C[C@@H]1CN(C(=O)Cc1cccc(OC)c1)C2,-7%,0.87,,
O=C(Cn1cc(-c2ccccn2)ccc1=O)NC1CCOCC1,12%,-1.46,,
COCCN(Cc1ccc(OC)c(OS(=O)(=O)c2cccc(C(F)(F)F)c2)c1)C(=O)Nc1ccccc1OC,-13%,1.45,,
Cc1cc(CN2CC[C@H](CN(C)Cc3scnc3C)C2)no1,15%,-1.89,,
O=C(CCc1c[nH]c2ccccc12)Nc1ccccc1C(=O)O,32%,-3.59,,
CCN(C)C[C@@H](C)CNc1nc(C)nc2c1Cc1ccccc1OC2,-6%,0.84,,
CCN1CCN(Cc2csc(-c3ccccc3)n2)[C@H]2CS(=O)(=O)C[C@H]21,-13%,1.71,,
Fc1cc(F)cc(CN2CCC(OC[C@H]3CCCO3)CC2)c1,4%,-0.55,,
CCS(=O)(=O)N1CCC[C@H](C(=O)NC(C)(C)c2c[nH]nn2)C1,-1%,0.11,,
O=C1C[C@H](NC(=O)Nc2ccccc2)CN1,-5%,0.91,,
CCOC(=O)Nc1cc(Cl)ccc1Cl,-6%,0.8,,
Cc1cc(C)c(NC(=O)CN(C)C(=O)Nc2cccnc2)c(C)c1,-6%,0.82,,
COc1ccc(CN(CCc2c[nH]c3ccccc23)C(=O)CN(C(=O)Cc2ccc(F)cc2)C2CC2)cc1OC,5%,-0.69,,
O=C(Cn1c(=O)ncc2c1cnn2[C@H]1CCS(=O)(=O)C1)Nc1ccc(F)c(Cl)c1,5%,-0.67,,
Cc1c(Cl)cccc1C(=O)N1CC(C(C)(C)O)C1,16%,-1.8,,
NCc1nc(C(=O)N2CCN(c3ccccc3F)CC2)cs1,-9%,1.35,,
Cc1scc(CCNC(=O)CN2CC[C@H](N(C)C)C2)c1C,-4%,0.65,,

SMILES,% Inhibition,Z score,% Inhibition (2 µM),Z score (2 µM)
COc1ccc(C(=O)N[C@H]2CC(=O)N(C(C)C)C2=O)cn1,-16%,2.5,,
Cc1cc(C)cc(OCc2nc(CN(C(=O)c3cccc(C)c3)C3CC3)cs2)c1,-2%,0.34,,
Cc1ncc(C)c(N2CCC(CNC(=O)[C@@H]3CCCCN3C)CC2)n1,-11%,1.84,,
O=C(NC[C@@H]1CCCO1)c1cnc(Cc2c(Cl)cccc2Cl)nc1O,-5%,0.69,,
Cc1ncsc1CCN(C)Cc1ccc2c3c(cccc13)C(=O)OC2,-20%,1.86,,
NCCOc1ccc(F)cc1C(=O)N(Cc1cccnc1)C1CCCCC1,9%,-1.18,,
Cc1csc(C[C@H]2CCN(C(=O)c3ccc4cc[nH]c4n3)C2)n1,-2%,0.26,,
Cc1ccccc1CNC(=O)CCS(=O)(=O)c1ccc2c(c1)CC(=O)N2C,-7%,0.87,,
N=C1CCCN1c1ccc(Cl)c(Cl)c1,,,-2% and -4%,0.2 and 0.51
CC(C)[C@@H](C(=O)Nc1cnc2c(c1)CCCC2)N1CCCS1(=O)=O,-7%,0.86,,
CCCc1ncc(C(=O)O[C@@H](C)Cc2cccnc2)s1,-20%,3.8,,
O=C(NCCc1cscn1)c1coc(CN2CCc3ccccc3C2)n1,5%,-0.7,,
Cn1c(N2CCN(C(=O)Cc3ccccc3)CC2)cc(=O)n(C)c1=O,-6%,1.02,,
CCC(=O)N1CCCN(S(=O)(=O)C2CCCC2C)CC1 (centres undefined),-6%,1.13,,
c1nc(N2CCOCC2)ncc1CNCc1nnc2n1CCCCC2,-7%,0.59,,
Cc1nc([C@H]2CCN(C(=O)Nc3c(C)noc3C(C)C)C2)n[nH]1,-4%,0.6,,
CN(CCCNC(=O)Cc1n[nH]c(=O)c2ccccc12)Cc1ccccc1,37%,-5.3,,
COCCN(C)Cc1ncnn1-c1cccc(C)n1,-17%,3.18,,
CN(C)c1ccc(C(=O)N(Cc2ccccc2)[C@H](CO)Cc2cnc[nH]2)cn1,6%,-1.1,,
COc1ccccc1NC(=O)c1ccc(NC(=O)COC(=O)CCNS(=O)(=O)c2ccc3ccccc3c2)cc1,-7%,1.14,,
CCOc1ccc(-c2cc(C(=O)N(Cc3cccc(F)c3)[C@H]3CCS(=O)(=O)C3)no2)cc1,5%,-0.55,,
O=S(=O)(NC1(c2cccc(Cl)c2)CC1)N1CCCCC1,0%,0.01,,
CN=C(NCc1ccccc1)NC(C)C,0%,-0.03,,
CCN(CC)C(=O)c1sc2c(c1C)c(=O)n(-c1ccc(C)c(C)c1)c(=O)n2CC(=O)NC[C@H]1CCCO1,15%,-1.82,,
O=C(NCCc1nc2c(c(C(F)(F)F)n1)CCCC2)c1ccsc1,-4%,0.57,,
CCN1CCN(C(=O)c2cc(-c3ccc4c(c3)CCO4)no2)C(C)(C)C1=O,5%,-0.58,,
